Consider one compound from PubChem BioAssay (NCI).

Each structure is given as a SMILES string. Where a structure was tested more than once in an assay, its records may differ in their call.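 Results are percent growth after 48 hours of single-concentration exposure. 100 means growth as in untreated cells, lower positive values show inhibition; negative values down to -100 show cell death.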 The source holds more than one record for some entries. This is not the full list of results. There may be further records. Rule for the calls: active = growth percent below 10; inactive = the rest. The screen tested this drug many times, at the concentration stated with the values; each value is one run. Counts like (3×) say how often a value occurs here.

For assay [1], the system named is K-562 leukemia. The assay can be described thus: NCI-60 one-dose screen, 48 h (100 = growth as untreated, 0 = no growth, -100 = all killed). As to conditions: 25 µM.
For assay [2], the system named is MALME-3M melanoma. The assay is described as above. The settings on record: 0.25 µM.

Take `COc1cccc2c1C(=O)c1c(O)c3c(c(O)c1C2=O)C[C@@](O)(C(=O)CO)C[C@@H]3OC1CC(N)C(O)C(C)O1` (stereo not given in full): the growth result is “active: -11.9, 1.49, 3.76, -52.2, -31.7, -27.7, -26.3, -7.58, 0.535, -16.4, -41.3, -30.2, 0.124, 0.282, -41.6, -18, -36.4, -28.2 (2×), -10.9, -35.9, -14, 6.02, -13, -67, 0, 6.34, -40.4, -57, -20.7, -57.5, -30.9, 2.18, -22.6, -19.3, -0.94, -5.69, 2.69 (2×), -26.8, -41.7, -32.6, -44.8, -12.6, -25.4, -47.8, -35.3, 5.48, -9.73, -19.2, 2.24, -35.7, -66, -25, -5.5, 0.908, -0.82, -53.7, -15.3, 1.78, 0.443, -6.35, -2.13, -16.1, -28.3, -17.2, -29, 0.607, -38.3, -21.6, -41.4 (2×), -61.7, -3.33, -5.17, -7.64, -9.36, -5.25, -40, -46.1, -17.3, -4.72, 8.67, -8.98, 4.43, -59.9, -21.1, -27.8, -35.5, 3.68 (2×), -4.68, -34, 0.281, -4.02, 3.74, -46.8, -45.1, -9.39, 5.57, -7.92, 3.72, -3.98, -26.5, -13.3, -14.6, 2.46, 5, -20.4, 1.48, -30.5, 0.9% and inactive: 25.4, 11.4, 16.6, 31.2, 17.1, 19.9, 13.8, 41.8, 30.2%” in assay [1] (runs of 1992); “active: 1.22, 5.8, 1.94, -37.6, -20, -26.5 (2×), -28.2, 2.87, -11.7, -12.8, -14, -45.1, -17.2, -35.2, 0.889, 1.17, 0.334, -68.6, -15.4, -8.62, -11, 0.26, -9.8, -36.3, -40.3, -46.1, -15.6, -30.4, -9.69, -27.8, -1.75, 2.71, -13.2, -21.9, -30.9, -5, -29.6% and inactive: 15.4, 105, 31.7, 26.3, 50.9, 13.6, 15.3%” in assay [1] (runs of 1993); “active: -12.1, -22.2, -42.3, -1.65, 1.9, -0.552, 2.31, -19.1, 5.52, 9.92, 3.25, 3.88, -40.4, -9.07, -48.8, -53.9, 1.11, -18.2, -25.4, 5.05, 1.07, -35.9, 1.22, -39.5, 3.02, 3.42, -53, -49.2% and inactive: 109, 31.3, 15.1, 14%” in assay [1] (runs of 1994); “active: -43.6, -16.4, 8.14, -17.7, -39.9, -60, 0.761, 0.61, -11.8, -51.6, 6.05, -43, -30.7, -24.3, -20.7, -45.7, -42.9, -36.2, -3.53, -38.3, -50.8, -1.55, -8.91, -69.5, -36.1, 9.22, -26.7, 2.3, -18.6, -53.3, -8.2, 0.778, -24.8, -69.1, -26.3, -58.6% and inactive: 20.4%” in assay [1] (runs of 1995); “active: -46.2, 3.74, -41, 4.2, -49.6, -50, -16.4, 8.27, 6.74, -52.1, 8.96, -76.1, -0.365, -7.14, -100, -51, -55, 6.25, 0.233, 3.72, -49.4, -59.8, -58.9, -27.1, -3.61, 1.22, 4.28, -7.91, -21.5, -33, -35.1, -42.4, -46.5, -45.4, 0.858, -26.3, -83.2, -51.9, -26.5, -1.04, -59.5, -23.8, -70.2, -43.6% and inactive: 17.2, 101, 72.3, 90.3, 13.1, 10.6%” in assay [1] (runs of 1996); “active: 6.6, 1.83, -38, -50.3, -50.4, -67.2, -24.7, -24.3, 8.34, -11.5, 6.39, -3.76, 0.0635, 0.24, -13.2, 9.28, 8.84, 3.14, -41.4, 4.38, -37.1, -8.1, -28, -42.7, 1.27, -33.3, -53.9% and inactive: 23.4, 20.8, 11.1, 49.4, 24.5 (2×), 11.3, 18.7, 73.4%” in assay [1] (runs of 1997). Moreover, the growth result was “active: -44.9, -3.48, 8.66, 6.11, 2.89, -18.8, 8.79, -50.2, -22, 4.08, 0.506, 0.244, -72.1, -24.6, -24.9, -19, -15.9% and inactive: 16.4%, 87.5%, 14.2%” in assay [1] (runs of 1998); “active: -15.5, 0.728, 3.97, -17.6, -5.52, 0.502, -51.9, 4.64, 0.175, -87.1, -54.6, 2.42, 3.03, -96.5, 0.793, 4.2, 6.43%” in assay [1] (runs of 1999); “active: -88%, 3.16%, -32.1% and inactive: 15.9%” in assay [1] (runs of 2000); “inactive: 36.8%, 10.2%” in assay [2] (runs of 2006); “active: 7.79, -17.6, -3.95, 9.09, 2.18, -8.96, -7.95, 4.02, 7.59, 7.06% and inactive: 21.7, 27.5 (2×), 26.3, 28.9, 23.2, 22.8, 18.9 (2×), 18.5, 30.8, 31.4, 86.8, 43.8, 27.3, 15, 37.1, 29.9, 49.6, 28.4, 32.1, 40.4, 69.5, 19.2, 28.5, 27.1, 19.8, 29.5, 17.1, 18.3, 18.1, 12, 25.5%” in assay [2] (runs of 2007); “inactive: 30.8, 34.5, 18.1, 34.2, 35.1, 30.2, 27.3 (2×), 28.6, 24.2, 34.9, 70.5, 47.7, 22.1 (2×), 12, 12.7, 18.7, 11.3, 108, 28.4, 23.3, 20.6, 27.5, 46.8, 17.1, 29.4, 21.6, 21.7% and active: -5.07, -20.9, 2.88, 9.43, -14.7, -7.85, -11.8, -10.8, -2.09, 6.93, 8.13, -2.01, -0.0777, -0.766, -22.5, 5.52, -11.7, -5.94, -9.37, -15.4, -25.4, 7.47, 9.31, 3.64, 6.36, 1.72, 0.668, -1.24%” in assay [2] (runs of 2008). For the same compound, the growth result in assay [2] (runs of 2009) is “inactive: 25.5 (2×), 22.7, 28.3, 40.1, 26.7, 29.5, 37.9, 44.3, 31.7, 16.4 (2×), 27.1, 27.9, 12.2, 24.5, 18.9, 33.3, 17 (2×), 14.1, 19.1, 18.1, 25.8, 21.4 (2×), 23.6, 21.8, 17.8, 18, 35.1, 36.1, 20.6, 39, 10.5, 32.4, 15, 27.3, 21.3, 16.1, 60.9, 34.7, 19.5, 24.6, 36, 13% and active: 2.33, -5.41, 3.15, 9.2, -11.2, -6.82, -7.09, 6.8, 6.52, -1.28, 7.76, -3.24, 9.69, 1.97, 8.16, 5.6, -12.3, 7.61, -10.3, 0.67, -19.2, 8.09%”; in assay [2] (runs of 2010), “inactive: 10.1, 44.3, 48.2, 10.7, 27.7, 20.8, 15, 49.6, 38.3, 28.5, 11, 32, 38.9, 24.2, 18.7, 23.5, 45.1, 30.9, 19.8, 42.3, 47.4, 23.9, 29.2, 20, 12.8, 30.4, 27.2 (2×), 29.6, 22.3, 39.3, 14.6, 17.6, 28.2, 11.7, 28.8, 17, 23.3, 30.1, 33.1, 22.8% and active: 9.68, -2.08, -1.86, 4.92, -5.26, -5.05, 9.97, 5.83, -1.4, 4.77%”; in assay [2] (runs of 2011) it was “inactive: 35.8, 34.6, 33.9, 33.7, 35, 46.6, 42.8, 36.3, 46.3, 26.5, 34.7, 30.5 (2×), 27.9, 43.9, 37 (2×), 41.5, 39.8, 37.6 (2×), 46.2, 38.1, 45.7, 27.4, 44.6, 44.4, 41.8, 19.8, 12.9, 28.3, 16.8, 22.8, 22.6, 26.9, 21.5, 24.1, 26.7, 32.5, 37.1, 28.2, 32.7, 37.8, 27.7, 31.4, 20.3, 14.8, 24.6, 38.3, 30.3, 17.4, 32, 34.5, 31.5, 32.2, 66.2, 47.2%”.
